# Experimental data taken from patent US20230250147A1, “GLP-1R AGONISTIC PEPTIDES WITH REDUCED ACTIVITY” (SANOFI, priority 2020, published 2023).
# pEC50: −log10 of the molar value. Part of at least one peptide drawing is inferred or uncertain, most often the ends. No end group written: not given here.
# Columns and labels:
# Assay type in all cases: cell-based
# [1] = target: T1, Monkey GLP-1R (Macaca fascicularis, UniProt F8V479); test: HTRF cAMP assay in HEK-293 cells, monkey GLP-1R
# T1 construct: expressed in transfected cells; host or cells: HEK-293
# Description: (§1) Recombinant HEK-293 cells were grown in T175 culture flasks placed at 37° C. to near confluence in medium (DMEM with 10% FBS) and collected in 2 mL vials in cell culture medium containing 10% DMSO in concentrations of 1-5×10^7 cells/mL. Each vial contained 1.8 mL cell suspension. The vials were slowly frozen to −80° C. in an isopropanol chamber, and then transferred to liquid nitrogen for long term storage.
# (§2) Prior to their use, frozen cells were thawed quickly at 37° C., washed with 20 mL cell buffer (1×HBSS; 20 mM HEPES, 0.1% BSA) and centrifuged for 5 minutes at 900 rpm. Cells were resuspended in assay buffer (cell buffer plus 2 mM IBMX) and adjusted to a cell density of 1×10^6 cells/mL. For measurement, 5 μL cell suspension (final 5×10^3 cells/well) and 5 μL of test compound were added to a well of a 384-well plate, followed by incubation for 30 minutes at room temperature. […] The cAMP content of cells was determined using a kit from Cisbio Corp. (cat. no. 62AM4PEC) based on Homogenous Time Resolved Fluorescence (HTRF).
# [2] = target: T2, Human GLP-1R (Homo sapiens, UniProt P43220); test: HTRF cAMP assay in HEK-293 cells, human GLP-1R
# T2 construct: expressed in transfected cells; host or cells: HEK-293
# Description: as §1, §2
# [3] = target: T3, Mouse GLP-1R (Mus musculus, UniProt O35659); test: HTRF cAMP assay in HEK-293 cells, mouse GLP-1R
# T3 construct: expressed in transfected cells; host or cells: HEK-293
# T3 sequence (O35659 22-463): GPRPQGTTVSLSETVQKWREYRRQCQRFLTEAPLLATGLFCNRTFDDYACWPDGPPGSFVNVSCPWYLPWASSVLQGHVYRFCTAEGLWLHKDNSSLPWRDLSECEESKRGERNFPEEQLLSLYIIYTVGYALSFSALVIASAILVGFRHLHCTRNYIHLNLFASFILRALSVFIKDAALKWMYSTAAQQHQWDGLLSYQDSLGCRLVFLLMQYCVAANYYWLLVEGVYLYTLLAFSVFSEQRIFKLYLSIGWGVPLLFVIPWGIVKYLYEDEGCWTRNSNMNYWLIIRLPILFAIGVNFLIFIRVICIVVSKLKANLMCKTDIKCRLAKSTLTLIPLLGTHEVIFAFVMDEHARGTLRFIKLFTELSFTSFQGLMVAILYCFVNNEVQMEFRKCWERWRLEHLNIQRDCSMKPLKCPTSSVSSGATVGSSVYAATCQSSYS
# Description: as §1, §2
# T2 sequence (P43220 24-463): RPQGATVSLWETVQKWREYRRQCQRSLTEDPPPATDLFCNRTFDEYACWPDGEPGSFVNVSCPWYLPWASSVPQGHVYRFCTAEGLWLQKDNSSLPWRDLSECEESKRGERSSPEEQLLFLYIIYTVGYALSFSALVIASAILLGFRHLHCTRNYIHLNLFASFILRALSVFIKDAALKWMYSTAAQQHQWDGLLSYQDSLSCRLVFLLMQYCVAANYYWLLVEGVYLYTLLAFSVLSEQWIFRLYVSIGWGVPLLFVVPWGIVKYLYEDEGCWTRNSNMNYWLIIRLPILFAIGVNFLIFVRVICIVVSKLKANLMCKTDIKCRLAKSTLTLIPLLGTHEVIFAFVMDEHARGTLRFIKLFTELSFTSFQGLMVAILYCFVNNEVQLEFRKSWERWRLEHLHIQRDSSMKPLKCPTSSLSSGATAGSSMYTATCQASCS
# T1 sequence (F8V479 24-463): as the sequence (P43220 24-463) above, with S112N, F120S, S202G, L205V, L237F, W241R, I249V counted along it
Substance,pEC50 [1],pEC50 [2],pEC50 [3]
GHGEGTFTSDLSKQLEEERVQLFIEWLKAGGPKKIRYS-NH2 (C-terminus assumed) [compound 284],10.40,10.29,10.16
YGEGTFTSDKSKQLEKRLAHLFIEWLIKGGHSSGKPPPK-NH2 (C-terminus assumed) [compound 275],10.70,10.51,9.99
GHGEGTFTSDKSKQLEEERVQLFIEWLKAGGPKKIRYS-NH2 (C-terminus assumed) [compound 279],9.60,9.68,9.42
GHGEGTFTSDLSKQLEEERVRLFIEWLKAGGPKKIRYS-NH2 (C-terminus assumed) [compound 282],10.58,10.47,10.40
GHGEGTFTSDKSKQLEEEAVQLFIEWLKAGGPKKIRYS-NH2 (C-terminus assumed) [compound 297],10.67,10.67,10.48
GHGEGTFTSDLSKQLEEEAVQLFIEWLKAGGPKKIRYS-NH2 (C-terminus assumed) [compound 286],10.89,10.81,10.54
GHGEGTFTSDKSKQLEEERVRLFIEWLKAGGPKKIRYS-NH2 (C-terminus assumed) [compound 298],10.25,10.03,10.18
YGEGTFTSDKSKQLEKRLAHLFIEWLIAGGHSSGKPPPK-NH2 (C-terminus assumed) [compound 274],10.70,10.71,10.15
YGEGTFTSDKSQLLEKRLAHLFIEWLIAGGHSSGKPPPK-NH2 (C-terminus assumed) [compound 295],11.01,11.03,10.31
